# Laboratory results published in the supplement of paper PMC4967469.
# A lower IC50 marks a more sensitive line; where the fit passes the top or lowest dose, that dose stands as a limit. AUC sums up the same curve from the lowest dose to the 256-fold higher top dose; the more sensitive the line, the further below 1. The top dose, if marked as inferred, was derived from the fitted curves, not read from the paper.
# How the values were obtained:
# Assay in all cases: Viability of human cancer cell lines after 72 h of drug (GDSC screen)
# KIN001-266 = compound: CCN1CCC(n2cc(CNc3cc(Cl)c4ncc(C#N)c(Nc5ccc(F)c(Cl)c5)c4c3)nn2)CC1 [KIN001-266]; settings: top dose 20 µM; top dose inferred
# Description: (§1)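 Human cancer cell lines in 384-well plates, medium with 10% serum, drug for 72 h over a 256-fold dose range (nine 2-fold or five 4-fold steps up to the top dose). Adherent lines were fixed and stained with the nucleic acid dye Syto60, suspension lines read with resazurin; signal relative to control wells, capped at 0 and 100%. One two-parameter sigmoid per drug and line, fitted in a mixed model over all curves with the slope shared within a line.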
# CCT007093 = compound: O=C1/C(=C/c2cccs2)CC/C1=C\c1cccs1 [CCT007093]; settings: top dose 6.6 µM; top dose inferred
# Description: as §1
# BAY 61-3606 = compound: COc1ccc(-c2cc3nccn3c(Nc3ncccc3C(N)=O)n2)cc1OC [BAY 61-3606]; settings: top dose 8 µM; top dose inferred
# Description: as §1
# QL-XII-47 = compound: C=CC(=O)N1CCc2ccc(-n3c(=O)ccc4cnc5ccc(-c6cnn(C)c6)cc5c43)cc21 [QL-XII-47]; settings: top dose 10.24 µM; top dose inferred
# Description: as §1
Cell Line,AUC (KIN001-266),IC50 (KIN001-266),AUC (CCT007093),IC50 (CCT007093),AUC (BAY 61-3606),IC50 (BAY 61-3606),AUC (QL-XII-47),IC50 (QL-XII-47)
"LB831-BLC (bladder, adherent)",0.873,19.8 µM,0.982,> 6.6 µM,0.58,0.833 µM,0.671,1.94 µM
"LB996-RCC (kidney, adherent)",0.98,> 20 µM,0.874,> 6.6 µM,0.68,1.74 µM,0.982,> 10.2 µM
"LB1047-RCC (kidney, adherent)",0.879,> 20 µM,0.981,> 6.6 µM,0.557,0.73 µM,0.624,1.47 µM
"LB2241-RCC (kidney, adherent)",0.965,> 20 µM,0.975,> 6.6 µM,0.796,4.27 µM,0.984,> 10.2 µM
"LB2518-MEL (melanoma, adherent)",0.962,> 20 µM,0.987,> 6.6 µM,0.907,> 8 µM,0.987,> 10.2 µM
"LC4-1 (lymphoblastic leukaemia, suspension)",0.845,16.8 µM,0.979,> 6.6 µM,0.821,5.27 µM,0.638,1.61 µM
"LC-1-sq (lung squamous cell carcinoma, adherent)",0.983,> 20 µM,0.969,> 6.6 µM,0.961,> 8 µM,0.933,> 10.2 µM
"LC-2-ad (lung adenocarcinoma, adherent)",0.852,16.1 µM,0.984,> 6.6 µM,0.691,1.74 µM,0.847,7.8 µM
"LCLC-103H (large cell lung carcinoma, adherent)",0.877,16.9 µM,0.99,> 6.6 µM,0.771,2.78 µM,0.806,4.63 µM
"LK-2 (lung squamous cell carcinoma, adherent)",0.866,16.1 µM,0.982,> 6.6 µM,0.925,> 8 µM,0.966,> 10.2 µM
"LN-18 (glioma, adherent)",0.915,19.7 µM,0.994,> 6.6 µM,0.928,> 8 µM,0.967,> 10.2 µM
"LN-229 (glioma, adherent)",0.984,> 20 µM,0.985,> 6.6 µM,0.916,> 8 µM,0.909,> 10.2 µM
"LN-405 (glioma, adherent)",0.854,> 20 µM,0.911,> 6.6 µM,0.95,> 8 µM,0.77,4.9 µM
"LNCaP-Clone-FGC (prostate, adherent)",0.885,> 20 µM,0.982,> 6.6 µM,0.738,2.67 µM,0.408,0.346 µM
"LNZTA3WT4 (glioma, adherent)",0.981,> 20 µM,0.989,> 6.6 µM,0.942,> 8 µM,0.963,> 10.2 µM
"LOU-NH91 (lung squamous cell carcinoma, adherent)",0.95,> 20 µM,0.982,> 6.6 µM,0.916,> 8 µM,0.888,> 10.2 µM
"LOUCY (T-cell lymphoblastic leukaemia, suspension)",0.891,15.9 µM,0.959,> 6.6 µM,0.816,3.45 µM,0.402,0.363 µM
"LOXIMVI (melanoma, semi-adherent)",0.893,19.4 µM,0.989,> 6.6 µM,0.771,2.73 µM,0.764,3.34 µM
"LP-1 (myeloma, suspension)",0.88,14.7 µM,0.992,> 6.6 µM,0.831,3.93 µM,0.398,0.353 µM
"LS-123 (large intestine, adherent)",0.834,19.6 µM,0.963,> 6.6 µM,0.868,> 8 µM,0.734,3.79 µM
"LS-180 (large intestine, adherent)",0.929,> 20 µM,0.984,> 6.6 µM,0.768,3.41 µM,0.857,> 10.2 µM
"LS-411N (large intestine, adherent)",0.867,> 20 µM,0.974,> 6.6 µM,0.767,3.62 µM,0.595,1.24 µM
"LS-513 (large intestine, adherent)",0.79,9.31 µM,0.987,> 6.6 µM,0.902,> 8 µM,0.759,3.72 µM
"LS-1034 (large intestine, adherent)",0.747,6.98 µM,0.986,> 6.6 µM,0.88,> 8 µM,0.646,1.7 µM
"LU-65 (large cell lung carcinoma, suspension)",0.863,> 20 µM,0.987,> 6.6 µM,0.709,2.18 µM,0.827,7.81 µM
"LU-99A (large cell lung carcinoma, adherent)",0.861,16.7 µM,0.987,> 6.6 µM,0.839,5.4 µM,0.863,8.72 µM
"LU-134-A (small cell lung carcinoma, suspension)",0.91,> 20 µM,0.986,> 6.6 µM,0.828,5.36 µM,0.558,0.93 µM
"LU-135 (small cell lung carcinoma, suspension)",0.843,10.7 µM,0.991,> 6.6 µM,0.786,2.83 µM,0.874,7.16 µM
"LU-139 (small cell lung carcinoma, suspension)",0.858,> 20 µM,0.921,> 6.6 µM,0.945,> 8 µM,0.306,0.155 µM
"LU-165 (small cell lung carcinoma, suspension)",0.966,> 20 µM,0.987,> 6.6 µM,0.869,> 8 µM,0.491,0.603 µM
